# Laboratory results reported in PubChem BioAssay AID485297 (National Center for Advancing Translational Sciences (NCATS), 2010).
# The whole screen tested about 320,000 compounds, of which about 9,100 (2.8%) were called active. The inconclusive results got no clear call from the source; some entries with a clear call stand among them for comparison. Calls follow the shape of the dose curve; as a rule, active = well fitted activation curve with a large enough effect; inconclusive = small, poorly fitted or top-dose-only effect; inactive = no such curve, though single readings can be large or run the other way. Potencies of inconclusive entries are left out as doubtful fits.
# Assay: qHTS Assay for Rab9 Promoter Activators; also: nearly all actives have a fitted effect of over 60% in size
# Conditions: Huh7 Rab9 promoter-luciferase reporter, luminescence, 24 h; series mostly up to 9.22 µM
# Method in brief: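 Huh7 cells stably carrying Rab9 promoter–luciferase reporter, plated 1500 cells/well, compound added after 2 h and incubated 24 h at 37 °C; luciferase luminescence then read after 10 min with detection reagent.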
# Potency is read from the fitted curve at half-maximal effect; tags tell the direction and shape of the fitted curve.
row,Structure (SMILES),Potency
1,CC(NC(=O)CCc1nnc(Cc2cccc(C(F)(F)F)c2)o1)C1CC1 (stereo not given),"inconclusive [activator, single point]"
2,C/C(=N/NC(=O)c1cnccn1)c1cccs1,"inconclusive [activator, single point]"
3,Cc1cc(Cl)c2oc(C(=O)N3CCN(C(=O)c4ccco4)CC3)c(C)c2c1,"inconclusive [activator, partial curve]"
4,O=C(NC(=O)c1ccccc1)Nc1ccc(-c2cnco2)cc1,"inconclusive [activator, partial curve]"
5,COc1ccc(-c2nnc(-c3ccc(N)cc3)o2)cc1,"inconclusive [activator, single point]"
6,COc1ccccc1NC(=O)c1cc(Cl)nnc1Cl,"inconclusive [activator, partial curve]"
7,CSc1nc(NC(C)=O)nc(C)c1Br,"inconclusive [activator, partial curve]"
8,O=C(Nc1ccc(F)cc1)Nc1ccccc1F,active: 1.41 µM
9,CCOC(=O)c1cn2nc(Oc3ccc(C)cc3)ccc2n1,"inconclusive [activator, partial curve]"
10,Cc1ccc(NC(=O)c2ccc(CSc3nccc(C)n3)cc2)cc1,inactive
11,CCN(CC)c1ccc(/C=N/NC(=O)c2ccc(Br)o2)cc1,active: 3.16 µM
12,Cc1ccc(CNC(=O)[C@H](C)N2C(=O)N3CCc4c([nH]c5ccccc45)[C@@]3(C)C2=O)cc1,inactive
13,O=C(N/N=C1\CCc2ccccc21)c1ccccc1Cl,active: 2.82 µM
14,CCc1ccc(-c2nc(CCl)cs2)cc1,"inconclusive [activator, partial curve]"
15,CCn1c(SCC(=O)Nc2ccccc2)nc2c1c(=O)n(C)c(=O)n2C,"inconclusive [activator, single point]"
16,COc1ccc(OCC(=O)Nc2ccc(S(=O)(=O)Nc3cc(C)nc(C)n3)cc2)cc1,inactive
17,Cc1cc(NC(=O)c2ccco2)ncc1NC(=O)Cc1ccccc1,active: 3.16 µM
18,Cc1cc(NCCN2CCOCC2)n2ncc(-c3ccccc3)c2n1,active: 1.58 µM
19,COc1ccc(-c2noc(N3CCCC(C(=O)Nc4ccccc4F)C3)n2)cc1 (stereo not given),"inconclusive [activator, partial curve]"
20,C/C(=N/NC(=O)c1ccccn1)c1c[nH]c2ccccc12,active: 3.55 µM
21,CN(C)c1cc2c(c(N(C)C)c1)C(=O)c1ccccc1C2=O,"inconclusive [activator, single point]"
22,O=C(Nc1sc2c(c1C(=O)O)CCCCC2)c1ccccc1F,active: 3.98 µM
23,Cc1cc(S(=O)(=O)N2CCCOC2CNC(=O)C(=O)NCCc2ccco2)ccc1F (stereo not given),"inconclusive [activator, single point]"
24,C=CCn1c2ccccc2c(=O)c2cc(C#CC3(O)CCCCC3)ccc21,active: 0.708 µM
25,CCCNC(=O)Cn1cnc2sc(C(=O)Nc3ccc4c(c3)OCO4)c(C)c2c1=O,"inconclusive [activator, partial curve, poor fit]"

row,Structure (SMILES),Potency
1,O=C1N=C(N2CCOCC2)S/C1=C\c1ccncc1,inactive
2,COc1ccc(NC(=S)Nc2ccccn2)c(OC)c1,"inconclusive [activator, partial curve]"
3,CCn1c(SCC(=O)NCc2cccs2)nnc1-c1ccncc1,"inconclusive [activator, single point]"
4,Cc1ccccc1C(=O)Nc1nnc(SCC(=O)NCc2ccco2)s1,active: 1.78 µM
5,Cc1ccc(CNC(=O)CCC2CCCN(Cc3cccc4ncccc34)C2)o1 (stereo not given),inactive
6,COc1ccc(-n2ncc3c(N4CCCCC4)ncnc32)cc1,"inconclusive [activator, partial curve]"
7,CS(=O)(=O)c1ccc2c(c1)SC1=NC(=O)/C(=C/c3ccco3)C(=N)N12,"inconclusive [activator, single point]"
8,COc1ccc2c(c1OC)C(=O)N(c1ccc(O)cc1)C2,"inconclusive [activator, partial curve]"
9,CC(C)c1onc(C(=O)NCCc2ccccc2)c1[N+](=O)[O-],"inconclusive [activator, single point]"
10,COc1ccc(NC(=O)c2ccc(-c3ccc(C(C)=O)cc3)o2)cn1,"inconclusive [activator, single point]"
11,COc1cccc(CNc2ncc(Br)cc2Br)c1O,"inconclusive [activator, partial curve]"
12,Cc1cnc(NC(=O)c2cncc(Br)c2)s1,active: 1.26 µM
13,COc1ccc(NN=Nc2ccc([N+](=O)[O-])cc2)cc1,active: 3.55 µM
14,COc1ccc(NC(=O)c2ccccc2NC(=O)C2CCCO2)cc1 (stereo not given),"inconclusive [activator, partial curve]"
15,COC(=O)c1ccc(C(=O)Nc2ccc(C(C)C)cc2N)cc1,"inconclusive [activator, partial curve]"
16,CC1CCCCC12NC(=O)N(CC(=O)NC(=O)Nc1ccc3c(c1)OCCO3)C2=O (stereo not given),active: 3.55 µM
17,CN(CC(=O)Nc1ccccc1Cl)C(=O)c1cccc(S(=O)(=O)N2CCN(c3ccc(F)cc3)CC2)c1,active: 2.24 µM
18,C/C(NC(=O)c1ccccc1F)=C1\C(=O)C[C@@H]2[C@H]1C2(C)C,"inconclusive [activator, partial curve]"
19,CCCCN1C(=O)CC(Nc2ccc(CC)cc2)C1=O (stereo not given),inactive
20,c1cncc(-c2nc3ccccc3s2)c1,"inconclusive [activator, partial curve]"
21,CCc1ccc2c(c1)C(=O)c1ccccc1C2=O,"inconclusive [activator, single point]"
22,O=C1CSC(c2ccccc2)N1Nc1nc(N2CCOCC2)nc(N2CCOCC2)n1 (stereo not given),inactive
23,c1ccc(N2CCN(c3ncnc4sc5c(c34)CCC5)CC2)cc1,inactive
24,COc1c(O)ccc(/C=C(\C#N)c2nc3ccccc3[nH]2)c1[N+](=O)[O-],inactive
25,COCC1CCN(C(=O)c2ccc3oc(Cc4ccccc4)nc3c2)C1 (stereo not given),"inconclusive [activator, partial curve]"

row,Structure (SMILES),Potency
1,O=C(Nc1ccc(N2CCOCC2)c(Cl)c1)c1cc2ccccc2o1,active: 3.16 µM
2,O=C(NC(=S)Nc1cccnc1Cl)c1ccc(Cl)cc1,"inconclusive [activator, partial curve]"
3,Clc1ccc(OCc2nc(-c3ccncc3)no2)c(Cl)c1,active: 0.631 µM
4,COc1cc(C(=O)O/N=C(\N)c2ccncc2)cc(OC)c1OC,inactive
5,CCOc1ccc(N(CC(=O)NCc2ccccc2C)S(C)(=O)=O)cc1,"inconclusive [activator, single point]"
6,O=C(/C=C/c1ccco1)NCC1OCCc2ccccc21 (stereo not given),"inconclusive [activator, single point]"
7,CCOC(=O)Cc1cc(=O)n2[nH]c(C)c(-c3ccc(OC)cc3)c2n1,"inconclusive [activator, single point]"
8,Nc1ccc2c(c1)sc1ccccc12,"inconclusive [activator, single point]"
9,Cc1cccc(OCc2nc(-c3nonc3N)no2)c1C,"inconclusive [activator, partial curve]"
10,CC(C)CN1C(=O)c2ccc(NC(=O)c3ccco3)cc2C1=O,"inconclusive [activator, single point]"
11,O=C(O)c1ccc(NC(=O)c2cn(-c3ccccc3)nc2-c2ccc(F)cc2)cc1,"inconclusive [activator, single point]"
12,C=CCn1c(O)c(N=NC(=O)C(O)c2ccccc2)c2ccccc21 (stereo not given),inactive
13,Nc1ccc(Cc2ccc(N)c(O)c2)cc1O,"inconclusive [activator, single point]"
14,COC(=O)c1ccccc1NC(=O)CSc1nnc(-c2ccc(C)cc2)o1,"inconclusive [activator, partial curve]"
15,CC(C)OC(=O)CSc1nc2c(cc1C#N)CCCCC2,"inconclusive [activator, partial curve]"
16,O=C(Nc1ccc(CN2CCOCC2)cc1)c1ccc(Br)o1,"inconclusive [activator, single point]"
17,COc1ccc(NC(=O)CSc2ccccc2)c(OC)c1,active: 3.98 µM
18,CC(=O)c1sc(NC(=O)c2ccc(C)c(C)c2)nc1C,active: 1.78 µM
19,COc1cc(/C=C/C(=O)Nc2ccc3[nH]c(=O)[nH]c3c2)cc(OC)c1OC,inactive
20,CCc1c(C)nc2cc(-c3cccs3)[nH]n2c1=O,"inconclusive [activator, single point]"
21,O=C(NCCN1C(=O)S/C(=C\c2ccc(Cl)cc2Cl)C1=O)C1=COCCO1,"inconclusive [activator, single point]"
22,COc1cc2c(cc1NC(=O)CSc1ccccn1)oc1ccccc12,"inconclusive [activator, single point]"
23,Cc1cccc(NC(=S)NNC(=O)c2csc(C)c2)c1,"inconclusive [activator, single point]"
24,CCCCN(Cc1ccccc1)c1ncnc2nc[nH]c12,"inconclusive [activator, partial curve]"
25,CC(C)(C)c1ccc(OC(=O)N2CCOCC2)cc1,"inconclusive [activator, partial curve]"
